Results from PubChem BioAssay (Tox21).
Where “and” joins values, the source holds several entries; their conditions need not be identical. Identical values can stand only once. Inconclusive results, whose numbers are uncertain, are shown with a selection of clear calls. For part of these data: Potencies of inconclusive entries are doubtful fits and often do not repeat. Calls of active or inactive are those of the source. Unless noted, calls follow the shape of the dose curve; as a rule, active = well fitted curve in the direction sought with a large enough effect in the repeat runs; inconclusive = weak or mixed curves; inactive = no such curve, though single readings can be large; an effect the other way counts as inactive or inconclusive.

Key:
[1] = qHTS RealTime-Glo MT Cell Viability Assay in HEK293 cells - 32 hour (AID 1224868); also: potency is read from the fitted curve at half-maximal effect; nearly all actives have a fitted effect of over 50% in size
In short: (§1)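 HEK293 cells were seeded at 600 cells/well together with NanoLuc luciferase and cell-permeant prosubstrate, preincubated 5 h at 37 C/5% CO2, then given compound in DMSO by pintool. Luminescence from viable-cell prosubstrate reduction was read repeatedly over 40 h.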

[2] = qHTS RealTime-Glo MT Cell Viability Assay in HEK293 cells - 16 hour (AID 1224872); also: nearly all actives have a fitted effect of over 50% in size; also: potency is read from the fitted curve at half-maximal effect
In short: as §1

[3] = qHTS assay to identify small molecule agonists of H2AX - cell viability counter screen (AID 1224847; calls by dose curve; also: potency is read from the fitted curve at half-maximal effect; nearly all actives have a fitted effect of over 30% in size)
In short: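 We seed wild-type CHO-K1 cells overnight, treat them for 3 hr at 37C with compounds in 15-concentration series, and quantify remaining viability by CellTiter-Glo luminescence.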

[4] = qHTS RealTime-Glo MT Cell Viability Assay in HEK293 cells - 40 hour (AID 1224874); conditions: RealTime-Glo luminescence; max response: stronger effect = lower value; also: potency is read from the fitted curve at half-maximal effect; nearly all actives have a fitted effect of over 50% in size
In short: (§2)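 Real-time viability in HEK293: signal arises when living cells convert a prosubstrate for NanoLuc in the medium, so luminescence tracks viable cell number. Compound (23 nL, DMSO) added 5 h post-seeding; kinetic reads at 0–40 h, 37 C.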

[5] = qHTS RealTime-Glo MT Cell Viability Assay in HepG2 cells - 24 hour (AID 1224867); also: potency is read from the fitted curve at half-maximal effect; nearly all actives have a fitted effect of over 50% in size
In short: (§3)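 HepG2 cells were seeded at 600 cells/well together with NanoLuc luciferase and a cell-permeant prosubstrate, preincubated 5 h at 37 C/5% CO2, then pin-dosed with compounds in DMSO. Nonlytic luminescence from viable cells was read at each time point.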

[6] = A CellTox Green Cytotoxicity Assay to monitor cytotoxicity in HEK293 cells - 40 hour (AID 1224871); also: potency is read from the fitted curve at half-maximal effect; nearly all actives have a fitted effect of over 45% in size
In short: (§4)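 Cells (HEK293, 600/well) and dye reagent are dispensed together. After 5 h at 37 C, 23 nL compound is pinned in. Plates stay at 37 C for 40 h with fluorescence read at 0h, 8h, 16h, 24h, 32h and 40h.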

[7] = A CellTox Green Cytotoxicity Assay to monitor cytotoxicity in HEK293 cells - 24 hour (AID 1224875); also: potency is read from the fitted curve at half-maximal effect; nearly all actives have a fitted effect of over 45% in size
In short: as §4

[8] = A CellTox Green Cytotoxicity Assay to monitor cytotoxicity in HepG2 cells - 16 hour (AID 1224876); also: potency is read from the fitted curve at half-maximal effect; nearly all actives have a fitted effect of over 45% in size
In short: (§5)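 Cells and non-lytic dye reagent are dispensed together (600 HepG2 cells/well) and incubated 5 h before DMSO compound transfer. Kinetic fluorescence is then recorded in the same wells during 40 h at 37 C.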

[9] = qHTS RealTime-Glo MT Cell Viability Assay in HepG2 cells - 32 hour (AID 1224877); also: potency is read from the fitted curve at half-maximal effect; nearly all actives have a fitted effect of over 55% in size
In short: as §3

[10] = A CellTox Green Cytotoxicity Assay to monitor cytotoxicity in HepG2 cells - 24 hour (AID 1224878); also: potency is read from the fitted curve at half-maximal effect; nearly all actives have a fitted effect of over 45% in size
In short: as §5

[11] = A CellTox Green Cytotoxicity Assay to monitor cytotoxicity in HepG2 cells - 40 hour (AID 1224879); also: potency is read from the fitted curve at half-maximal effect; nearly all actives have a fitted effect of over 40% in size
In short: as §5

[12] = qHTS RealTime-Glo MT Cell Viability Assay in HEK293 cells - 0 hour (AID 1224880)
In short: as §2

[13] = A CellTox Green Cytotoxicity Assay to monitor cytotoxicity in HEK293 cells - 32 hour (AID 1224881); also: potency is read from the fitted curve at half-maximal effect; nearly all actives have a fitted effect of over 40% in size
In short: as §4

[14] = qHTS assay to identify small molecule antagonists of the estrogen related receptor (ERR) signaling pathway from Tox21 library (AID 1224848); also: nearly all actives have a fitted effect of over 50% in size; also: potency is read from the fitted curve at half-maximal effect
In short: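 Quantitative high-throughput format: ERR reporter cells (2,000/well) pre-incubated 6 h, treated 18 h at 37 C with compounds in DMSO alongside positive and negative controls, then read by ONE-Glo luminescence.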

[15] = qHTS assay to identify small molecule agonists of the estrogen related receptor (ERR) signaling pathway from Tox21 library (AID 1224849; calls by dose curve; also: % is scaled to controls: 0 for no effect and ±100 for the full control effect; nearly all actives have a fitted effect of over 15% in size); conditions: ERR reporter cell line, ONE-Glo luciferase, 18 h; at 92.4 µM (top of the series)
In short: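 Cells carrying the ERR reporter were plated and allowed to settle for 6 h, exposed to library compounds for 18 h at 37 C, then lysed with ONE-Glo and luminescence measured.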

[16] = qHTS RealTime-Glo MT Cell Viability Assay in HepG2 cells - 8 hour (AID 1224873); also: potency is read from the fitted curve at half-maximal effect; nearly all actives have a fitted effect of over 55% in size
In short: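 HepG2 cells (600/well) mixed with RealTime-Glo MT reagent, settled 5 h at 37 C/5% CO2 before compound addition. Nonlytic NanoLuc luminescence from viable-cell prosubstrate reduction read repeatedly during 40 h treatment at 37 C.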
Tags tell the direction and shape of the fitted curve.

Q: Which Potency [1] does the source give for `CCCCCCCCCC` here?
A: inconclusive: 49 µM [rising, partial curve, poor fit]

Q: And the Potency [2]?
A: inactive

Q: Which results are given for `CC(C)(C)NC(=O)[C@H]1CC[C@H]2[C@@H]3CC[C@H]4NC(=O)C=C[C@]4(C)[C@H]3CC[C@]12C`?
A: Potency [3]: inconclusive: 112 µM [cytotoxic] and inconclusive: 127 µM [cytotoxic, single point]; Potency [1]: inconclusive: 43.2 µM [cytotoxic, partial curve, poor fit]; Potency [4]: inconclusive: 43.2 µM [cytotoxic, partial curve]

Q: Which results are given for `Clc1ccc2c(c1)C(N1CCNCC1)=Nc1ccccc1O2`?
A: Potency [5]: inconclusive: 26.8 µM [falling, single point]; Potency [1]: active: 43.6 µM and active: 26.8 µM; Potency [6]: inconclusive: 54.9 µM [activator, single point]; Potency [2]: inconclusive: 49 µM [cytotoxic, partial curve] and inconclusive: 26.8 µM [cytotoxic, partial curve, poor fit]; Potency [7]: inconclusive: 54.9 µM [activator, single point] and inconclusive: 26.8 µM [activator, single point]; Potency [8]: active: 54.9 µM and inconclusive: 26.8 µM [activator, single point]; Potency [9]: inconclusive: 26.8 µM [cytotoxic, single point]; Potency [10]: active: 54.9 µM and active: 26.8 µM; Potency [11]: active: 49 µM and active: 26.8 µM; Potency [12]: inconclusive: 13.4 µM [rising, partial curve, poor fit]; Potency [13]: inconclusive: 54.9 µM [activator, single point] and inconclusive: 26.8 µM [activator, single point]

Q: For `CCCCCC#CC(=O)OC`, which Potency [14] is on record?
A: inactive

Q: And the activity change, positive = activation [15]?
A: inconclusive: 0.129%

Q: And the Potency [1]?
A: inconclusive: 30.9 µM [rising, partial curve]

Q: And the Potency [2]?
A: inactive

Q: And the Potency [16]?
A: inconclusive: 27.5 µM [falling, partial curve, poor fit]

Q: What about the Potency [4] of the same compound?
A: inconclusive: 49 µM [rising, partial curve]

Q: Which Potency [3] does the source give for `CC(C)OC(=O)C(C)(C)Oc1ccc(C(=O)c2ccc(Cl)cc2)cc1` here?
A: active: 50.5 µM and inconclusive: 24.7 µM [cytotoxic, partial curve]

Q: What about the Potency [2] of the same compound?
A: active: 21.9 µM and active: 16.9 µM

Q: And the Potency [4]?
A: active: 24.5 µM and active: 19 µM

Q: And the Potency [8]?
A: inconclusive: 952 nM [activator, single point]

Q: What about the Potency [11] of the same compound?
A: inconclusive: 15.5 µM [activator, partial curve]

Q: What does the source list for `CC(C)(C)c1ccc(O)c(O)c1`?
A: Potency [3]: inconclusive: 89.8 µM [rising, partial curve]; Potency [6]: inconclusive: 50.7 µM [activator, partial curve] and active: 38.9 µM; Potency [2]: active: 25.4 µM and active: 13.8 µM; Potency [7]: inconclusive: 28.5 µM [activator, partial curve, poor fit] and inconclusive: 61.6 µM [activator, single point]; Potency [8]: inconclusive: 61600 nM [activator, single point]; Potency [11]: inconclusive: 49 µM [activator, partial curve, poor fit]; Potency [12]: inconclusive: 27.5 µM [rising, full curve, poor fit]; Potency [13]: inconclusive: 32 µM [activator, partial curve] and inconclusive: 24.5 µM [activator, partial curve]

Q: For `COC(=O)C1=C(C)NC(C)=C(C(=O)OC)C1c1ccccc1[N+](=O)[O-]`, which Potency [14] is on record?
A: inconclusive: 34.4 µM [inhibitor, partial curve]

Q: And the Potency [1]?
A: inconclusive: 49 µM [cytotoxic, partial curve]

Q: And the Potency [2]?
A: inconclusive: 43.7 µM [cytotoxic, partial curve]

Q: And the Potency [16]?
A: inconclusive: 24.6 µM [falling, partial curve] and inconclusive: 16.9 µM [falling, partial curve]

Q: What about the Potency [4] of the same compound?
A: inconclusive: 49 µM [cytotoxic, partial curve]

Q: And the Potency [7]?
A: inconclusive: 239 nM [activator, single point]

Q: What about the Potency [13] of the same compound?
A: inconclusive: 55 µM [activator, single point]
